Test results reported in the supplement of paper PMC9446081.
Hit rate of the full screen: of about 39,000 compounds, about 220 (0.56%) showed activity. The list shows a part of the results.

Tested on: Escherichia coli K-12 BW25113
Test: relative growth (OD600 normalised to plate interquartile mean) (fraction); higher = less growth inhibition, active = 0.2 or less
Details: 50 µM; LB; incubation time: overnight (16-24 h)
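Note: static incubation at 37 °C against the wild-type strain, values averaged over two biological replicates.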

SMILES	relative growth
CCS(=O)(=O)Nc1ccc2c(c1)C(=O)N(C)[C@@H]1CC[C@@H](CC(=O)NCc3ccccc3F)O[C@@H]1CO2	inactive: 1.02
C[C@@H]1CN([C@H](C)CO)C(=O)c2cccc(NS(C)(=O)=O)c2O[C@H]1CN(C)S(=O)(=O)c1cccs1	inactive: 1
C[C@@H]1CN([C@@H](C)CO)C(=O)c2cc(NS(=O)(=O)c3ccc(F)cc3)ccc2O[C@@H]1CN(C)Cc1ccncc1	inactive: 1
Cc1ccc(S[C@]2(C(=O)O)CC(=O)N(C3Cc4ccccc4C3)[C@@H]2c2ccc(CO)cc2I)cc1	inactive: 1.03
Cc1ccc(=O)n(CC(=O)O)n1	inactive: 1.03
C[C@H](CO)N1C[C@H](C)[C@H](CN(C)C(=O)C2CCCCC2)Oc2cc(C#CCN(C)C)ccc2S1(=O)=O	inactive: 1.01
C[C@H]1CN([C@@H](C)CO)C(=O)c2cccc(NC(=O)c3cnccn3)c2O[C@H]1CN(C)Cc1ccccc1	inactive: 1.02
C[C@@H]1CN([C@H](C)CO)C(=O)CCCn2nncc2CO[C@@H]1CN(C)C(=O)Nc1ccc(N2CCN(C)CC2)cc1	inactive: 1.02
C[C@@H]1CN([C@H](C)CO)C(=O)Cc2cc(NC(=O)CCC(F)(F)F)ccc2O[C@H]1CN(C)Cc1ccc(C(F)(F)F)cc1	inactive: 1.07
COc1ccc([Si](C)(C)[C@@H]2[C@@H](CCn3cc(CCOC(=O)NCCCCCC(=O)NO)nn3)O[C@]3(C(=O)N(Cc4ccc(I)cc4)c4ccccc43)[C@H]2C)cc1	inactive: 1.03
C[C@@H]1CN([C@@H](C)CO)C(=O)c2cc(NS(=O)(=O)c3cccs3)ccc2O[C@H]1CN(C)Cc1ccc(-c2ccccc2)cc1	inactive: 0.984
CC(C)NC(=O)N(C)C[C@@H]1Oc2ccc(NC(=O)Cn3cnnn3)cc2CC(=O)N([C@H](C)CO)C[C@@H]1C	inactive: 1.01
CCC(=O)N[C@@H]1C=C[C@@H](CC(=O)OC)O[C@H]1CO	inactive: 1.01
C[C@H]1CN([C@@H](C)CO)C(=O)c2cccc(NC(=O)c3ccc(-c4nccs4)cc3)c2O[C@H]1CN(C)C(=O)NC1CCCCC1	inactive: 0.993
O=C(CCO)c1ccc(O)cc1	inactive: 1.03
Cc1ccc(S(=O)(=O)N(C)C[C@H]2Oc3ccc(NS(=O)(=O)c4cn(C)cn4)cc3CC(=O)N([C@H](C)CO)C[C@H]2C)cc1	inactive: 0.996
C[C@@H]1CN([C@@H](C)CO)C(=O)c2cc(NC(=O)Nc3ccc4c(c3)OCO4)ccc2O[C@@H]1CN(C)S(=O)(=O)c1cn(C)cn1	inactive: 1.03
CCC(=O)OCC(=O)C1(OC(=O)CC)C(C)CC2C3CCC4=CC(=O)C=CC4(C)C3(F)C(O)CC21C (stereo unspecified)	inactive: 0.832
COc1ccc(S(=O)(=O)Nc2cccc3c2O[C@@H](CN(C)C(=O)Nc2c(C)noc2C)[C@@H](C)CN([C@H](C)CO)C3=O)cc1	inactive: 0.995
C[C@H]1CN([C@@H](C)CO)C(=O)c2cc(-c3ccncc3)cnc2O[C@H]1CN(C)S(=O)(=O)c1ccccc1	inactive: 1.01
Cc1ccc(S(=O)(=O)Nc2ccc3c(c2)C(=O)N([C@H](C)CO)C[C@@H](C)[C@H](CN(C)S(=O)(=O)c2cn(C)cn2)O3)cc1	inactive: 1.01

SMILES	relative growth
Cn1ccc(=O)[nH]c1=O	inactive: 0.978
CC(C)=Cc1ccc(C#N)c(=S)[nH]1	inactive: 0.88
Cc1ccc(S(=O)(=O)Nc2ccc3c(c2)CC(=O)N([C@H](C)CO)C[C@@H](C)[C@H](CN(C)Cc2ccncc2)O3)cc1	inactive: 0.996
C[C@@H]1CCCCO[C@@H](CN(C)Cc2ccccc2)[C@@H](C)CN([C@@H](C)CO)C(=O)c2cc(NC(=O)c3ccncc3)ccc2O1	inactive: 1.02
CC(C)C#Cc1ccc2c(c1)O[C@H](CN(C)C(=O)Cc1ccccn1)[C@H](C)CN([C@H](C)CO)S2(=O)=O	inactive: 1.02
C[C@H](CO)N1C[C@H](C)[C@@H](CN(C)S(=O)(=O)c2cccs2)OCCCC[C@H](C)Oc2ccc(NC(=O)CCC(F)(F)F)cc2C1=O	inactive: 0.971
C[C@@H]1CN([C@@H](C)CO)C(=O)CCCn2nncc2CO[C@@H]1CN(C)C(=O)Nc1ccccc1C(F)(F)F	inactive: 1.02
C[C@@H]1CCCCO[C@H](CN(C)C(=O)NC2CCCCC2)[C@H](C)CN([C@@H](C)CO)C(=O)c2cc(NC(=O)CCC(F)(F)F)ccc2O1	inactive: 0.971
Cc1cc(C(=O)Nc2cccc3c2O[C@@H](CN(C)Cc2ccc4c(c2)OCO4)[C@H](C)CN([C@@H](C)CO)C3=O)n(C)n1	inactive: 1
O=C(c1cnccn1)N1CCC2(CCCN2)CC1	inactive: 0.994
C[C@H](CO)N1C[C@H](C)[C@H](CN(C)S(=O)(=O)c2ccc(Cl)cc2)Oc2ccc(NS(=O)(=O)c3cn(C)cn3)cc2CC1=O	inactive: 1.03
C[C@@H]1CCCCO[C@@H](CN(C)Cc2ccncc2)[C@@H](C)CN([C@H](C)CO)C(=O)c2cc(NC(=O)c3ccccc3)ccc2O1	inactive: 0.905
CC(C)(CO)NC(=S)NC[C@H]1CCCO1	inactive: 1
COc1ccc(S(=O)(=O)Nc2cccc3c2O[C@@H](CN(C)S(=O)(=O)c2ccc(OC)cc2)[C@H](C)CN([C@H](C)CO)C3=O)cc1	inactive: 1.04
CCS(=O)(=O)N1[C@H](CO)[C@H](c2ccccc2)C12CN(C(=O)CN(C)C)C2	inactive: 0.975
CS(=O)(=O)N1CC[C@@H]2OCCN(C(=O)c3cccnc3)[C@@H]2C1	inactive: 0.979
CC(C)NC(=O)Nc1cccc2c1O[C@H](CN(C)C(=O)Nc1ccc3c(c1)OCO3)[C@@H](C)CN([C@@H](C)CO)C2=O	inactive: 0.996
CS(=O)(=O)N1[C@@H]2Cn3c(ccc(-c4ccccc4)c3=O)[C@H]1[C@@H](C(=O)NCC1CC1)[C@@H]2CO	inactive: 0.991
C[C@H](CO)N1C[C@H](C)[C@@H](CN(C)C(=O)Cc2ccccc2)OCCCC[C@H](C)Oc2ccc(NC(=O)Cc3ccccc3)cc2C1=O	inactive: 0.993
CC/C(=C\c1ccccc1)C(=O)O	inactive: 0.983
